# This is one part of the list.
# B1: Epa1-NP-mutant-Y228W (Candida glabrata), Q6VBJ0 (protein)
# chain: MILNPALFLNKCVCIYTTLILLLLTNGGYATSSNDISLASKDPTTFPLGCSPDITTPKKGLSMELYSYDFRKKGSYPCWDAAYLDPNYPRTGYKSHRLLAKVDGVTGNINFYYHATKGCTPQLGHLPASYNYPKPLTMTNFTMLLYGYFRPKVTGFHTFTISADDLLFVNFGAGNAFDCCRRDSSADHFGNYQAYAIWGSKTAKDELTVHLDAGVYYPIRLFYNNREWDGALSFTFKTESNENTVSDFSEYFFSLDDTEEGCPGLISYDSSCASVKTSKIIGIDYHTETPNENLVPITKTIYHLGIPCTGTTTTPLCGSGFYDPLANKCVTINTSSTSSVTKTTSHTTSKEVSFHSSISSQKTLIPKSIPSPYGPIKSQSIPTEMETSSEISSSEYAFSDVISTPSHSPYTKKHSSLNSSSYTSTVIHSLTSYSISQGIFSTSLSEQNITSKSSTDKFSTATSMSNNITQSSIIISQFSTNNENYTTTSMHTSSDKISTETLNNSISTTTSILFSNSSTILKNNTTIISSDKDTHYHPVNPTIVCSTNKTEIICASITQPSISNSNNHWSSSVLKFNSTTVRSTLPSSAGSNETSINVPFSSSTESNTSTSSTSTSNSKMVRSTLPSSAGSNETSISVPFSSSTESNTSTSSTSTSNSKMVRSTLPSSAGSNETSINVPFSSSTESNTSTSSTSTSNSKTVRSTPFSSAGIIMTSLSQRNNKSASSYASSNSKCYNTADSCRKVHSTPSYLLTSSYTSEGVDYDCSLVSTKLKINDTNCVNNKHTTKSCLKTSVTTTIPTLEIKTARKSSSNTIGLHSYPTSSPNKSISSAPIIGYISSFKTIKTASPSYQTSDLTTITTITSLNNPGSTAVENTHESNDKSRKTSSNDISSKHSVIKETKDAVESSNKSHQTNTLKCSSIIIASSSHNSYESLGGTTLTLTLSKVYSPQNNDTLPFLEISEVNPSRTVLPESSKMMQYLTSTEERNKTARNTIATNIVSISTFHFEGEGNAIRMGYTQLLLMLIGIIVMNIGT
# Legend:
# Assay in all cases: glycan array binding signal (z-score within array); higher = stronger binding
# Conditions in all cases: glycan notation: IUPAC condensed, linker removed; mutation: Y228W
# [1] = target: Man(a1-2)Man(a1-3)[Man(a1-2)Man(a1-6)]Man
# In short: (§1)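 Arrays were curated from the Consortium for Functional Glycomics database, 3228 in total, and kept only where the protein sequence was available. Binding is expressed as a within-array Z-score. This score was averaged across arrays of the same protein sequence at different concentrations or buffers and across linkers, and negative values can be read as non-binding.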
# [2] = target: Man(a1-2)Man(a1-3)[Man(a1-2)Man(a1-6)]Man(a1-6)[Man(a1-2)Man(a1-2)Man(a1-3)]Man
# In short: as §1
# [3] = target: Man(a1-2)Man(a1-3)[Man(a1-2)Man(a1-6)]Man(a1-6)[Man(a1-2)Man(a1-2)Man(a1-3)]Man(b1-4)GlcNAc(b1-4)GlcNAc
# In short: as §1
# [4] = target: Man(a1-2)Man(a1-3)[Man(a1-6)]Man(a1-6)[Man(a1-2)Man(a1-3)]Man(b1-4)GlcNAc(b1-4)GlcNAc
# In short: as §1
# [5] = target: Man(a1-2)Man(a1-6)[Man(a1-3)]Man(a1-6)[Man(a1-2)Man(a1-2)Man(a1-3)]Man
# In short: as §1
# [6] = target: Man(a1-2)Man(a1-6)[Man(a1-3)]Man(a1-6)[Man(a1-2)Man(a1-2)Man(a1-3)]Man(b1-4)GlcNAc(b1-4)GlcNAc
# In short: as §1
# [7] = target: Man(a1-3)[Man(a1-6)]Man
# In short: as §1
# [8] = target: Man(a1-3)[Man(a1-6)]Man(a1-6)[Man(a1-2)Man(a1-3)]Man(b1-4)GlcNAc(b1-4)GlcNAc
# In short: as §1
# [9] = target: Man(a1-3)[Man(a1-6)]Man(a1-6)[Man(a1-3)]Man
# In short: as §1
# [10] = target: Man(a1-3)[Man(a1-6)]Man(a1-6)[Man(a1-3)]Man(b1-4)GlcNAc(b1-4)GlcNAc
# In short: as §1
# [11] = target: Man(a1-3)[Man(a1-6)]Man(b1-4)GlcNAc(b1-4)GlcNAc
# In short: as §1
# [12] = target: Man(a1-3)[Man(a1-6)]Man(b1-4)GlcNAc(b1-4)[Fuc(a1-6)]GlcNAc
# In short: as §1
# [13] = target: Man(a1-6)Man
# In short: as §1
# [14] = target: Man(b1-4)GlcNAc
# In short: as §1
# [15] = target: MurNAc(b1-4)GlcNAc
# In short: as §1
# [16] = target: Neu5Ac(a2-3)Gal
# In short: as §1
# [17] = target: Neu5Ac(a2-3)Gal(b1-3)GalNAc
# In short: as §1
# [18] = target: Neu5Ac(a2-3)Gal(b1-3)GalNAc(b1-3)Gal(a1-4)Gal(b1-4)Glc
# In short: as §1
# [19] = target: Neu5Ac(a2-3)Gal(b1-3)GalNAc(b1-4)Gal(b1-4)Glc
# In short: as §1
# [20] = target: Neu5Ac(a2-3)Gal(b1-3)GalNAc(b1-4)[Neu5Ac(a2-3)]Gal(b1-4)Glc
# In short: as §1
# [21] = target: Neu5Ac(a2-3)Gal(b1-3)GalNAc(b1-4)[Neu5Ac(a2-8)Neu5Ac(a2-3)]Gal(b1-4)Glc
# In short: as §1
# [22] = target: Neu5Ac(a2-3)Gal(b1-3)GalNAc6S
# In short: as §1
# [23] = target: Neu5Ac(a2-3)Gal(b1-3)GlcNAc
# In short: as §1
# [24] = target: Neu5Ac(a2-3)Gal(b1-3)GlcNAc(b1-2)Man
# In short: as §1
# [25] = target: Neu5Ac(a2-3)Gal(b1-3)GlcNAc(b1-2)Man(a1-3)[GlcNAc(b1-4)][Neu5Ac(a2-3)Gal(b1-3)GlcNAc(b1-2)Man(a1-6)]Man(b1-4)GlcNAc(b1-4)GlcNAc
# In short: as §1
# [26] = target: Neu5Ac(a2-3)Gal(b1-3)GlcNAc(b1-2)Man(a1-3)[Neu5Ac(a2-3)Gal(b1-3)GlcNAc(b1-2)Man(a1-6)]Man(b1-4)GlcNAc(b1-4)GlcNAc
# In short: as §1
# [27] = target: Neu5Ac(a2-3)Gal(b1-3)GlcNAc(b1-2)[Neu5Ac(a2-3)Gal(b1-3)GlcNAc(b1-4)]Man(a1-6)[Neu5Ac(a2-3)Gal(b1-3)GlcNAc(b1-2)Man(a1-3)]Man(b1-4)GlcNAc(b1-4)GlcNAc
# In short: as §1
# [28] = target: Neu5Ac(a2-3)Gal(b1-3)GlcNAc(b1-3)Gal(b1-3)GlcNAc
# In short: as §1
# [29] = target: Neu5Ac(a2-3)Gal(b1-3)GlcNAc(b1-3)Gal(b1-4)GlcNAc
# In short: as §1
# [30] = target: Neu5Ac(a2-3)Gal(b1-3)GlcNAc(b1-3)GalNAc
# In short: as §1
binder,measurement,setting,value
B1,glycan array binding signal (z-score),[1],-0.495
same,glycan array binding signal (z-score),[2],-0.267
same,glycan array binding signal (z-score),[3],-0.382
same,glycan array binding signal (z-score),[4],-0.004
same,glycan array binding signal (z-score),[5],-0.337
same,glycan array binding signal (z-score),[6],-0.28
same,glycan array binding signal (z-score),[7],-0.183
same,glycan array binding signal (z-score),[8],-0.291
same,glycan array binding signal (z-score),[9],-0.095
same,glycan array binding signal (z-score),[10],-0.275
same,glycan array binding signal (z-score),[11],-0.221
same,glycan array binding signal (z-score),[12],-0.007
same,glycan array binding signal (z-score),[13],-0.361
same,glycan array binding signal (z-score),[14],0.004
same,glycan array binding signal (z-score),[15],0.201
same,glycan array binding signal (z-score),[16],0
same,glycan array binding signal (z-score),[17],-0.292
same,glycan array binding signal (z-score),[18],-0.219
same,glycan array binding signal (z-score),[19],-0.22
same,glycan array binding signal (z-score),[20],-0.165
same,glycan array binding signal (z-score),[21],-0.3
same,glycan array binding signal (z-score),[22],-0.312
same,glycan array binding signal (z-score),[23],0.052
same,glycan array binding signal (z-score),[24],-0.329
same,glycan array binding signal (z-score),[25],-0.322
same,glycan array binding signal (z-score),[26],-0.117
same,glycan array binding signal (z-score),[27],-0.103
same,glycan array binding signal (z-score),[28],-0.516
same,glycan array binding signal (z-score),[29],-0.166
same,glycan array binding signal (z-score),[30],-0.104

# Reference: the supplement of paper PMC8728848
